# Measurements from the supplement of paper PMC11417369.
# This is one part of the list.
# Test system: PfAP2-HC AP2 domain (GST-tagged)
# Test: gcPBM binding intensity (ln(normalized median fluorescence intensity)); higher = stronger DNA binding
# In short: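 DNA-binding domains from P. falciparum, fused to GST and produced in E. coli, were put on an Agilent 4 × 180k double-stranded probe array for 1 h in 1× PBS holding 1% milk, 0.2 mg/ml BSA, 0.5% salmon testes DNA and 0.03% Triton X-100. Probes were primer-extended, 36 bp long and drawn from intergenic genomic regions, with negative controls included. After Alexa488 anti-GST antibody detection and a 488 nm scan, binding intensity was set as the highest Masliner-normalised natural-log median intensity across replicate spots of either probe orientation.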
row,Sequence,gcPBM binding intensity (ln)
1,TATTTATCTATTTTGTTATATAATAAAATAAAATAA [CACACA_negctrl_site281],9.23
2,AAACAATTGAATAAATGTACAGATACATTTTTTTAA [XGTACX_site5386],9.65
3,AAAAATAAACAAAATTGTACACATTACATACATATA [XGTACX_site966],9.8
4,ATACATACAAAAATTTGTACATATTTCCAATAATGT [XGTACX_site2658],9.57
5,GAAAAAACGAAAAAAATACACACCTGAAAAGATATG [CACACA_site887],9.88
6,GCCATAATATGACATACACACACAAAAAAAAAAAAA [CACACA_site8353],10.6
7,AAATTTCCATTTGGGTGTACATGTGAAACTACAAAG [XGTACX_site208],9.63
8,TTTTTATTTATATGATACTTATATATATATATATAT [CACACA_negctrl_site462],9.78
9,TTCTTAATATTGCATGCACACTATATAATAATTGAA [CACACA_site4720],9.85
10,TCTTTTAAAAAAATTTGTACATATTTTTTGTATTAT [XGTACX_site67],9.66
11,TTTTCCCTCTTATTCACACAAAAAAAATAAAATAAA [CACACA_site4656],9.26
12,TATTTATTTTTTTTTGTGCACTTAATATAATCTTAC,9.78
13,ACACTAACATCATATCGTACATTTGTTAATTTATAA [XGTACX_site8654],9.74
14,GAAAGAATAAAATTTACACACATATAAATATACATA [CACACA_site7125],9.79
15,TATTTGAAAACATAGGTGCACATTATTTTATAATCT [GTGCAC_site9947],9.74
16,AAAGGTGTCATATATGCACACAAAAGTAACACGCAC [CACACA_site8051],10.2
17,TTTATTCTTGAGTATTGTACATATGTGTTTGTATAT [XGTACX_site5706],9.96
18,AGGAGGATGCATATGGCACACATTATGAAACTGTCG [CACACA_site299],9.69
19,TGTTCTTTGTTCAGCGCATGTAAAATAAAATAAAAT [TGCATGCA_site629],9.31
20,TTTTTTTTTGAATACAGTACACAAGTGTTAAGTTTA [XGTACX_site7069],9.36
21,GATTGATTATATGTGTGTACTTATATGTTAAAAAAA [XGTACX_site4784],9.78
22,TATGAATATCTATACACACACATATATATACCCACT [CACACA_site4963],10.2
23,ATCGTTATATAAAAATGTACTTATAAATTGTATACA [XGTACX_site6664],9.55

row,Sequence,gcPBM binding intensity (ln)
1,CAACATTTGATAAACACACAGAAGTATAAATATATA [CACACA_site2365],9.83
2,AAAGGAAAAATCCAAGTGCATTATTATTTTCACAAA [GTGCAC_site9995],9.38
3,TGTAAGCACATACAAACACACAACATTATTTTTATC [CACACA_site2186],10.2
4,TAGTATAATATGAACACACACACACGCACAAAAAAA [CACACA_site7035],10.5
5,GAAAAAAATGAAATTAGTACTTATCTTAAATTTTTA [XGTACX_site1018],9.26
6,AAAAATATATAATAAAGTACACATAAATGAATAAAT [XGTACX_site329],9.94
7,TTTTTTTTTTTTTGATGTACAATTAATATTATAAAA [XGTACX_site6969],9.15
8,ATTTCTTTTTTATTGAGTACATATGACCATGTTCAA [XGTACX_site5365],9.56
9,CATTTTAAAGAAAATACACACAAAAATAGATATATA [CACACA_site6773],9.79
10,AGTAATAAATAATTTACACACATATTATATCATCAC [CACACA_site1890],9.93
11,AAGAAATAAAGCAAAACATGCACTCGAAAATGTTTT [TGCATGCA_site1014],9.71
12,TTAGCAACTATTACTACACACATTTTTATATAACTT [CACACA_site6762],9.91
13,TATTGTTAAAATGAATAATTAAAACAGTAATGAATA [XGTACX_negctrl_site170],9.61
14,TATATATGTTTTTATGTACACACTTTTAACCTAAGA [CACACA_site1149],9.67
15,ATGTCTAATTTTGATGCACACTTTTGTGCAATTAAA [CACACA_site5589],9.73
16,CGCATGCAATGTTAATGTACATATATATATATATGT [XGTACX_site3316],9.6
17,AGGTGCAAAAATAAAACATGCAAAAATAAAAATGAA [TGCATGCA_site502],9.86
18,AATAATTAAATAAGAGTGCATGAAACAGGAAATTTC,9.94
19,TAATAAAAAATATATACACACAAATAAATAAATAAA [CACACA_site4037],9.9
20,AATAGTCGTGTGCATACACACCTTAACTATAATATA [CACACA_site6636],9.91
21,ACAGTATCTGGTAGCTGTACGAGTCGTAGAGAGTAG [XGTACX_site2041],9.76
22,ATTCAGTTATATAATACACACATATATTGACATTAT [CACACA_site2723],9.82
23,TATTATATTATGTGATGTACATATTTATATAGGCCC [XGTACX_site4746],9.57

row,Sequence,gcPBM binding intensity (ln)
1,ATTTATTGACTATTTACACACATATTTATTAAAATA [CACACA_site4980],9.75
2,TACGCTCCCAGACACACACACACACCGATATAATAT [CACACA_site8098],10.7
3,TATTACATACCTTATTGTACAAATTATATATTAAAG [XGTACX_site7334],9.54
4,TATTATAAAACATTATGTACATATTCTGAAAAATAG [XGTACX_site6577],9.58
5,TATTTCTTATTTATTTTTTAAGGAAATTAAAGATTT [CACACA_negctrl_site258],9.24
6,CAAAATAAAAAATTCACACACATATATATATATATA [CACACA_site2088],10.2
7,AAAACAAATGCTTAAAGTACTTATTATTTTTCTTTT [XGTACX_site6324],9.57
8,TTCCTACTATTCAAACGTACAAAATATTTAAATAAT [XGTACX_site700],9.42
9,TAAAAATATCTGTATACACACATATATATATATATA [CACACA_site6042],9.76
10,AAAAAAAAAAAAAAAAGTACAAATCTTTATTTATTA [XGTACX_site3305],9.3
11,ATAATATAATATAAAACACACATATGTACCTTCTAA [CACACA_site2761],9.9
12,CAAGTTCAAAATACAAGGAAGAAACAAAACTTGGCG [GTGCAC_negctrl_site600],9.79
13,TAATATTTCTTATTTTATATTTGTATATGAATGGAT [XGTACX_negctrl_site278],9.5
14,ATATAAATCATTGGTTGTACATATAATATTTTATAA [XGTACX_site925],9.49
15,TATATATCTATATATTGTACATATGTTTGTATGTGT [XGTACX_site7420],10.1
16,TATTTTTACCCATAAAGTACACATAAATATAAAATA [XGTACX_site177],9.52
17,TATGATATCTATAATACACACATATACATAAGATCT [CACACA_site6652],9.73
18,TTATATAAAACATTAACACACAAAGAAAAAAAATTA [CACACA_site1793],9.87
19,TTAATATAACTTTTTGCACACTTAATTTTTTTTTTT [CACACA_site3364],10
20,GCTCAATGTTTTACATGTACATATATATATATATAT [XGTACX_site8210],9.83
21,TATATATTAGAAGATAGTACATATATATTTATTAAT [XGTACX_site1011],9.62
22,TGGTGATCAAAATATACATGCATATGTTCTGTTATT [TGCATGCA_site614],9.81
23,TTTTTTCTTTTCTTTTTATTTTATTTTGTTTTATTT [CACACA_negctrl_site799],9.72

row,Sequence,gcPBM binding intensity (ln)
1,AATAAAAACTACATGTGTACATAATAAATACATATA [XGTACX_site755],9.92
2,TAAAAATATTTAAACTGTACTATTTTATGTTAAATG [XGTACX_site6620],9.56
3,ATAATCCAAAAAAATCAAATAAAATAAAATAAAATA [CACACA_negctrl_site449],9.5
4,TGAACCAGATTTAGAAGTACTAAATATTACATACAT [XGTACX_site2437],9.66
5,TGTTGCAAAACAAAAAAAAAAAAAAAAAATAATAAT [CACACA_negctrl_site1642],9.52
6,CAGAAATATTAATGCTGTACGGAATACATATATTTT [XGTACX_site539],9.62
7,ATTTTAATGGGACATGCATGGGACAAACTACAAATT [TGCATGCA_site853],9.72
8,AGAATATTTATATGATGTACTTATATATATATATAT [XGTACX_site3021],9.71
9,TATATATTAAAACACACACACATATATATATATATA [CACACA_site3787],10.1
10,AATTTGTAAAATAAGGTGCGTATAAAAAATTATATT [GTGCAC_site9676],9.79
11,ATAAACATCGGTAGTACACACATTCATGTACTTGAT [CACACA_site3037],9.84
12,ATTTAATAAAAAAAAAAAATATTGTAGAATATGATG [GTGCAC_negctrl_site195],9.36
13,CAAATGGTAAATGAAAGTACAAATTGTTTTGATTAA [XGTACX_site1536],9.7
14,ATATACATATTCTTGTGTACATAAAAATTTATATAT [XGTACX_site8726],9.72
15,TATATAAATATTCGTAGTACAATACAATTATAAGTA [XGTACX_site3068],9.74
16,TTTATAATTTTAAAATGTACAAGGAGGAAAAATTCT [XGTACX_site422],9.44
17,TTATATTTTATATTTACACACATTTATATTTATAAA [CACACA_site203],9.62
18,TATATATTTTTTTCAAGTACACATTACAGTTACATA [XGTACX_site2713],9.58
19,ATGTTTTCTCTTTCGGTGCATTGTTTTCTATACTTT [GTGCAC_site9483],10.1
20,ATTCGATGTTTTAAATGTACACAAATTGAAGGAATA [XGTACX_site409],9.7
